{"source": "the supplement of paper PMC3724861", "note": "This is one part of the list."}
{"system": "T1, Caupolican (Caup) homeodomain DNA-binding domain", "T1 sequence": "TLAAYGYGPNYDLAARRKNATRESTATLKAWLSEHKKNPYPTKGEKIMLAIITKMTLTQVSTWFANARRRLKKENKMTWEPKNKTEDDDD", "experiment": "PBM E-score (8-mer, recovered from the published 9-mer minima) (E-score (dimensionless, -0.5 to 0.5)); Drosophila protein; higher = stronger relative binding preference, active = 0.31 or more", "outline": "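Caup's homeodomain DNA-binding domain (residues 214-303) was made by in vitro transcription and translation and applied at 100 nM to custom-designed protein binding microarrays. Each value is an enrichment score that gives relative binding preference for a short DNA word, with higher meaning stronger. The 8-mer values were recovered from published 9-mer scores, each of which was the minimum of its two constituent 8-mer scores. A cutoff of 0.31 marks candidate sites.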"}
{"sequence": "GGGAATAA", "PBM E-score": "inactive: 0.00766"}
{"sequence": "ATAAAAAG", "PBM E-score": "inactive: 0.112"}
{"sequence": "AAAGCGAC", "PBM E-score": "inactive: 0.033"}
{"sequence": "ATCGGTCA", "PBM E-score": "inactive: -0.00776"}
{"sequence": "CATTATCG", "PBM E-score": "inactive: 0.109"}
{"sequence": "CTGGTGAA", "PBM E-score": "inactive: 0.0261"}
{"sequence": "ACGGAACC", "PBM E-score": "inactive: 0.105"}
{"sequence": "CTACGTAC", "PBM E-score": "inactive: 0.144"}
{"sequence": "ACAAGGAT", "PBM E-score": "active: 0.315"}
{"sequence": "GAATAATA", "PBM E-score": "inactive: 0.151"}
{"sequence": "GACGGTTA", "PBM E-score": "inactive: -0.0833"}
{"sequence": "AGCCTAGG", "PBM E-score": "inactive: -0.191"}
{"sequence": "AATTCGGT", "PBM E-score": "inactive: 0.0391"}
{"sequence": "ACCTTAAA", "PBM E-score": "inactive: -0.0366"}
{"sequence": "AGGTTTTC", "PBM E-score": "inactive: 0.0417"}
{"sequence": "ACAGATAC", "PBM E-score": "inactive: 0.201"}
{"sequence": "GTACAGCA", "PBM E-score": "inactive: 0.148"}
{"sequence": "ATACACAT", "PBM E-score": "active: 0.311"}
{"sequence": "GGCATCAC", "PBM E-score": "inactive: -0.0612"}
{"sequence": "GGTATCAC", "PBM E-score": "inactive: 0.0523"}
{"sequence": "ACGATTGC", "PBM E-score": "inactive: 0.116"}
{"sequence": "ACTTAATC", "PBM E-score": "inactive: 0.0653"}
{"sequence": "CTGTATAC", "PBM E-score": "inactive: 0.246"}
{"sequence": "GTCAGTCA", "PBM E-score": "inactive: 0.0572"}
{"sequence": "GTCACCTA", "PBM E-score": "inactive: -0.00573"}
{"sequence": "GCGCTGAC", "PBM E-score": "inactive: -0.0973"}
{"sequence": "CTATTTTC", "PBM E-score": "inactive: 0.101"}
{"sequence": "CGAGGAAA", "PBM E-score": "inactive: -0.0474"}
{"sequence": "ATGACGGC", "PBM E-score": "inactive: -0.128"}
{"sequence": "CTGCACCC", "PBM E-score": "inactive: -0.126"}
{"sequence": "ATATTCCA", "PBM E-score": "inactive: 0.0978"}
{"sequence": "CATCCCAG", "PBM E-score": "inactive: -0.082"}
{"sequence": "CATAGTGA", "PBM E-score": "inactive: 0.155"}
{"sequence": "CGCAGACA", "PBM E-score": "inactive: 0.0571"}
{"sequence": "ACCGAGCT", "PBM E-score": "inactive: -0.0939"}
{"sequence": "GGATGCCC", "PBM E-score": "inactive: -0.163"}
{"sequence": "CTAGGTAC", "PBM E-score": "inactive: 0.127"}
{"sequence": "CATATACA", "PBM E-score": "inactive: 0.298"}
{"sequence": "ATAACTCC", "PBM E-score": "inactive: -0.0329"}
{"sequence": "AAATCCTC", "PBM E-score": "inactive: -0.0384"}
{"sequence": "TCGTTGAA", "PBM E-score": "inactive: 0.0743"}
{"sequence": "ACTTGTGC", "PBM E-score": "inactive: 0.0346"}
{"sequence": "CAAAGAGA", "PBM E-score": "inactive: -0.0852"}
{"sequence": "AAAAGTCA", "PBM E-score": "inactive: 0.0226"}
{"sequence": "CGCTAAAG", "PBM E-score": "inactive: -0.087"}
{"sequence": "AAGGTACA", "PBM E-score": "inactive: 0.274"}
{"sequence": "CAGCAGAG", "PBM E-score": "inactive: -0.189"}
{"sequence": "AAGCGTCC", "PBM E-score": "inactive: -0.109"}
{"sequence": "AGATATGC", "PBM E-score": "inactive: 0.0723"}
{"sequence": "CTTTACAC", "PBM E-score": "inactive: 0.289"}
{"sequence": "GCTGGCCC", "PBM E-score": "inactive: -0.316"}
{"sequence": "AAGCATAT", "PBM E-score": "inactive: 0.105"}
{"sequence": "AACCTTCA", "PBM E-score": "inactive: 0.0236"}
{"sequence": "AGGAGTTG", "PBM E-score": "inactive: 0.0303"}
{"sequence": "CAAAGCCC", "PBM E-score": "inactive: -0.185"}
{"sequence": "ACGTGGAC", "PBM E-score": "inactive: -0.0344"}
{"sequence": "ACCGGACA", "PBM E-score": "≥ 0.144"}
{"sequence": "CGGCTAGA", "PBM E-score": "inactive: -0.124"}
{"sequence": "CTGGTCAC", "PBM E-score": "inactive: 0.00982"}
{"sequence": "CGCATATC", "PBM E-score": "inactive: 0.0383"}
{"sequence": "CAGGCTAC", "PBM E-score": "inactive: -0.0229"}
{"sequence": "CATGATCG", "PBM E-score": "inactive: 0.13"}
{"sequence": "CCACACCC", "PBM E-score": "inactive: -0.126"}
{"sequence": "GCCCCAGA", "PBM E-score": "inactive: -0.266"}
{"sequence": "AAGTCTAC", "PBM E-score": "inactive: 0.0118"}
{"sequence": "CCGCACTC", "PBM E-score": "inactive: -0.162"}
{"sequence": "ATAAATTC", "PBM E-score": "inactive: 0.122"}
{"sequence": "AACAAGGT", "PBM E-score": "inactive: 0.293"}
{"sequence": "CAGGCAAC", "PBM E-score": "inactive: -0.0298"}
{"sequence": "CATAACTC", "PBM E-score": "inactive: 0.0504"}
{"sequence": "AATATACG", "PBM E-score": "inactive: 0.115"}
{"sequence": "GCAATAAA", "PBM E-score": "inactive: 0.0712"}
{"sequence": "CGTGTCGA", "PBM E-score": "inactive: 0.281"}
{"sequence": "AGCCTACC", "PBM E-score": "inactive: -0.166"}
{"sequence": "CTCCCACA", "PBM E-score": "inactive: -0.12"}
{"sequence": "GCTTGTCA", "PBM E-score": "active: 0.352"}
{"sequence": "ACACGGGA", "PBM E-score": "inactive: 0.275"}
{"sequence": "CAATTTGG", "PBM E-score": "inactive: -0.00673"}
{"sequence": "AACCGACA", "PBM E-score": "inactive: 0.167"}
{"sequence": "CGTACCGC", "PBM E-score": "inactive: -0.16"}
{"sequence": "AAATGGAG", "PBM E-score": "inactive: -0.0805"}
{"sequence": "GGCCTTCA", "PBM E-score": "inactive: -0.181"}
{"sequence": "CACGTATG", "PBM E-score": "inactive: 0.0879"}
{"sequence": "CGGAATCA", "PBM E-score": "inactive: -0.0166"}
{"sequence": "GCCCGGGA", "PBM E-score": "inactive: -0.252"}
{"sequence": "CCCCGCGC", "PBM E-score": "inactive: -0.241"}
{"sequence": "ATCGGCAC", "PBM E-score": "≥ -0.0218"}
{"sequence": "CTATGGGC", "PBM E-score": "inactive: -0.163"}
{"sequence": "ACCACCCT", "PBM E-score": "inactive: -0.0681"}
{"sequence": "AACACTTC", "PBM E-score": "inactive: 0.141"}
{"sequence": "GCACCAGC", "PBM E-score": "inactive: -0.218"}
{"sequence": "GCCGCTCA", "PBM E-score": "inactive: -0.182"}
{"sequence": "GTAAACTA", "PBM E-score": "inactive: 0.149"}
{"sequence": "CGGCCCTA", "PBM E-score": "inactive: -0.157"}
{"sequence": "GTGTTCCA", "PBM E-score": "inactive: 0.181"}
{"sequence": "CCAAGTTC", "PBM E-score": "inactive: -0.123"}
{"sequence": "ATTAGGAC", "PBM E-score": "inactive: 0.0684"}
{"sequence": "TCTTACAA", "PBM E-score": "inactive: 0.246"}
{"sequence": "GTTAATCA", "PBM E-score": "inactive: 0.187"}
{"sequence": "CAACGAAA", "PBM E-score": "inactive: 0.103"}
{"sequence": "ACGGGAGG", "PBM E-score": "inactive: -0.175"}
{"sequence": "ACAGTTAA", "PBM E-score": "inactive: 0.155"}
{"sequence": "ACGCCCTA", "PBM E-score": "inactive: -0.214"}
{"sequence": "AGCCGTGA", "PBM E-score": "inactive: -0.117"}
{"sequence": "AGTTGCGG", "PBM E-score": "inactive: -0.048"}
{"sequence": "GAAAACAC", "PBM E-score": "inactive: 0.166"}
{"sequence": "AGTCAACG", "PBM E-score": "inactive: 0.0361"}
{"sequence": "AGTTAATC", "PBM E-score": "inactive: 0.0623"}
{"sequence": "ATGGAACG", "PBM E-score": "inactive: 0.0259"}
{"sequence": "CTTAGTAC", "PBM E-score": "inactive: 0.182"}
{"sequence": "AGAGGTGA", "PBM E-score": "inactive: -0.0361"}
{"sequence": "ATCCAGAC", "PBM E-score": "inactive: -0.00977"}
{"sequence": "GCACCAAA", "PBM E-score": "inactive: -0.0494"}
{"sequence": "AATAGATT", "PBM E-score": "inactive: 0.102"}
{"sequence": "CACCCTAG", "PBM E-score": "inactive: -0.0221"}
{"sequence": "CGATTAAG", "PBM E-score": "inactive: 0.0411"}
{"sequence": "ACGACAGC", "PBM E-score": "inactive: 0.104"}
{"sequence": "CGTATAAG", "PBM E-score": "inactive: -0.0701"}
{"sequence": "ATCTGACG", "PBM E-score": "inactive: -0.0369"}
{"sequence": "ATAATGTG", "PBM E-score": "inactive: 0.19"}
{"sequence": "ATCGCATG", "PBM E-score": "inactive: 0.184"}
{"sequence": "GCGAGCGA", "PBM E-score": "inactive: -0.156"}
{"sequence": "ACCCTCAG", "PBM E-score": "inactive: -0.121"}
{"sequence": "AAGATACT", "PBM E-score": "inactive: 0.0544"}
{"sequence": "AATGTGGC", "PBM E-score": "inactive: -0.0429"}
{"sequence": "GAGTTACA", "PBM E-score": "inactive: 0.215"}
{"sequence": "CATATGAC", "PBM E-score": "inactive: 0.117"}
{"sequence": "ATATTCTC", "PBM E-score": "inactive: 0.117"}
{"sequence": "CCCATCCG", "PBM E-score": "inactive: -0.202"}
{"sequence": "CATTATGC", "PBM E-score": "inactive: 0.0714"}
{"sequence": "AGTGAAAC", "PBM E-score": "inactive: 0.108"}
{"sequence": "GGGACACA", "PBM E-score": "inactive: 0.133"}
{"sequence": "CCCATATA", "PBM E-score": "inactive: 0.0107"}
{"sequence": "CCTCGAAC", "PBM E-score": "inactive: -0.0679"}
{"sequence": "CTCTCGGA", "PBM E-score": "inactive: -0.171"}
{"sequence": "CATCACCG", "PBM E-score": "inactive: 0.00939"}
{"sequence": "CGGATCTC", "PBM E-score": "inactive: -0.0187"}
{"sequence": "CATATAAA", "PBM E-score": "inactive: 0.188"}
{"sequence": "TCTGAAAA", "PBM E-score": "inactive: 0.0272"}
{"sequence": "ATGCAAAA", "PBM E-score": "inactive: 0.14"}
{"sequence": "GAGCCACC", "PBM E-score": "inactive: -0.23"}
{"sequence": "GCACTTCA", "PBM E-score": "inactive: 0.0194"}
